According to a collection of fitness landscapes (doi:10.1016/j.celrep.2020.107928):
Whole data set: some 81,000 sequences, median “one-hybrid fitness for binding NBS DNA” near -0.1, cut for the highest 2% near 0.36. This is one part of the list.

B1: Caulobacter ParB omega fusion; a variant is named by its letters at X, in order, B8GW30 (parent)
chain: MESVVVGEPGMSEGRRGLGRGLSALLGEVDAAPAQAPGEQLGGSREAPIEILQRNPDQPRRTFREEDLEDLSNSIREKGVLQPILVRPSPDTAGEYQIVAGERAWRAAQRAGLKTVPIMVRELDDLAVLEIGIIENVQRADLNVLEEALSYKVLMEKFERTQENIAQTIGKSXSHVANXMRLLXLPDEVQSYLVSGELTAXHARAIAAAADPVALAKQIIEGGLSVRETEALARKAPNLSAGKSKGGRPPRVKDTDTQALESDLSSVLGLDVSIDHRGSTGTLTITYATLEQLDDLCNRLTRGI

Variants of: B1
Test: one-hybrid fitness for binding NBS DNA (the Noc-binding site; scaled: cognate 1, non-cognate 0); higher = stronger binding
Details: with NBS DNA site
Outline: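 Selection: bacterial one-hybrid in E. coli USO, HIS3 reporter with the site 19 bp from the promoter, 48 hours at 37°C on M9-minus-histidine plus 0.1 mM IPTG and 5 mM 3-AT. Libraries were Caulobacter ParB with four randomised specificity codons, sequenced on Illumina before and after selection. Fitness is the rescaled log change in variant-to-wild-type read ratio, anchored to the cognate and non-cognate sites.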

Variant | one-hybrid fitness for binding NBS DNA
VLRF | ≤ 0.2
QMYV | ≤ 0.2
WGDL | ≤ 0.2
VLLC | ≤ 0.2
DMRT | ≤ 0.2
KKAD | ≤ 0.2
QWKM | ≤ 0.2
VKAL | ≤ 0.2
PQLM | ≤ 0.2
TKPA | ≤ 0.2
ESVS | ≤ 0.2
FTGS | ≤ 0.2
LVCW | ≤ 0.2
DGYG | ≤ 0.2
DEDG | ≤ 0.2
GNIV | ≤ 0.2
AMFC | ≤ 0.2
VKHG | ≤ 0.2
LVCT | ≤ 0.2
PDLA | ≤ 0.2
ANPD | ≤ 0.2
RDVI | ≤ 0.2
HMSI | ≤ 0.2
LYHF | ≤ 0.2
QFYG | ≤ 0.2
SLTT | ≤ 0.2

Variant | one-hybrid fitness for binding NBS DNA
HSMW | ≤ 0.2
NRGT | ≤ 0.2
PDQS | ≤ 0.2
PNNA | ≤ 0.2
FYPT | ≤ 0.2
SIVA | ≤ 0.2
DLHT | ≤ 0.2
STSK | ≤ 0.2
ELNC | ≤ 0.2
TSRK | ≤ 0.2
MTVF | ≤ 0.2
DPTK | ≤ 0.2
WTFC | ≤ 0.2
RGMI | ≤ 0.2
NKVT | ≤ 0.2
QQSW | ≤ 0.2
LMTN | ≤ 0.2
YMMT | ≤ 0.2
AEDF | ≤ 0.2
FDQT | ≤ 0.2
QPHA | ≤ 0.2
RLRS | 0.541
YWYR | ≤ 0.2
QSYW | ≤ 0.2
NSCM | ≤ 0.2
WDPK | ≤ 0.2

Variant | one-hybrid fitness for binding NBS DNA
WCDG | ≤ 0.2
LYWR | ≤ 0.2
WHSG | ≤ 0.2
SFDV | ≤ 0.2
LLPM | ≤ 0.2
MLHS | ≤ 0.2
QCQG | ≤ 0.2
LRSI | ≤ 0.2
PPVW | ≤ 0.2
VMCV | ≤ 0.2
QHKY | 0.529
ELPD | ≤ 0.2
KNTT | ≤ 0.2
QMWK | ≤ 0.2
DSHL | ≤ 0.2
LNIT | ≤ 0.2
TQNT | ≤ 0.2
RPDD | ≤ 0.2
VFIC | ≤ 0.2
RMDG | ≤ 0.2
AMIR | ≤ 0.2
VNFE | ≤ 0.2
AWTV | ≤ 0.2
KQTT | ≤ 0.2
HPFV | ≤ 0.2
VVLS | ≤ 0.2

Variant | one-hybrid fitness for binding NBS DNA
QNTN | ≤ 0.2
WCVT | ≤ 0.2
WDDY | ≤ 0.2
WKRL | ≤ 0.2
ALGM | ≤ 0.2
QVGL | ≤ 0.2
DFES | ≤ 0.2
QKEY | ≤ 0.2
WNNR | ≤ 0.2
KKNN | ≤ 0.2
PYSL | ≤ 0.2
LWYT | ≤ 0.2
VMVG | ≤ 0.2
NYFL | ≤ 0.2
DLIT | ≤ 0.2
DVQS | ≤ 0.2
TAWG | ≤ 0.2
PGPE | ≤ 0.2
PPPC | ≤ 0.2
TPLM | ≤ 0.2
SDRR | ≤ 0.2
HRHL | ≤ 0.2
DQAT | ≤ 0.2
TGKV | ≤ 0.2
TYGN | ≤ 0.2
CITC | ≤ 0.2

Variant | one-hybrid fitness for binding NBS DNA
RMGK | ≤ 0.2
CEPR | ≤ 0.2
SCMM | ≤ 0.2
RAMY | ≤ 0.2
EINS | ≤ 0.2
WGKV | ≤ 0.2
KQES | ≤ 0.2
MADI | ≤ 0.2
RHQL | ≤ 0.2
YRTE | ≤ 0.2
QCIE | ≤ 0.2
QIYI | ≤ 0.2
TVHP | ≤ 0.2
LQVD | ≤ 0.2
GDRW | ≤ 0.2
NATG | ≤ 0.2
WPVQ | ≤ 0.2
LLRI | ≤ 0.2
TCPA | ≤ 0.2
CIPC | ≤ 0.2
ILSC | ≤ 0.2
GYTL | ≤ 0.2
GHHC | ≤ 0.2
RIYE | ≤ 0.2
RGTP | ≤ 0.2
GMVE | ≤ 0.2

Variant | one-hybrid fitness for binding NBS DNA
ARAL | ≤ 0.2
MESM | ≤ 0.2
WQKS | ≤ 0.2
IHLG | ≤ 0.2
ETRY | ≤ 0.2
YVMS | ≤ 0.2
NCNA | ≤ 0.2
RIKG | ≤ 0.2
QVYP | ≤ 0.2
DLPI | ≤ 0.2
VGQT | ≤ 0.2
HHNS | ≤ 0.2
VTRY | ≤ 0.2
HPPM | ≤ 0.2
SPNR | ≤ 0.2
RENA | ≤ 0.2
TEGT | ≤ 0.2
QACI | ≤ 0.2
SNPT | ≤ 0.2
FIGG | ≤ 0.2
SSIV | ≤ 0.2
AEWR | ≤ 0.2
SNMW | ≤ 0.2
